Assay results reported in PubChem BioAssay AID1030 (National Center for Advancing Translational Sciences (NCATS), 2008).
The whole screen tested about 220,000 compounds, of which about 16,000 (7.3%) were called active. The shares of active, inactive and inconclusive entries below differ from those in the screen. Calls come from the whole dose curve; as a rule, active = well fitted inhibition curve with a large enough effect (not every such curve was filed as active); inconclusive = small, poorly fitted or top-dose-only effect, or another doubt; inactive = no such curve, though single readings can be large or run the other way. A potency beside an inconclusive call is a rough fit, not a confirmed value.

target: Aldehyde dehydrogenase 1A1 (Homo sapiens) (UniProt P00352); assay: qHTS Assay for Inhibitors of Aldehyde Dehydrogenase 1 (ALDH1A1); conditions: Purified ALDH1A1, NADH fluorescence, propionaldehyde substrate; series mostly up to 75.3 µM
Potency is the fitted concentration of half-maximal effect; tags give direction and shape of the fitted curve.

Sequence of UniProt P00352 (P00352 whole entry, looked up): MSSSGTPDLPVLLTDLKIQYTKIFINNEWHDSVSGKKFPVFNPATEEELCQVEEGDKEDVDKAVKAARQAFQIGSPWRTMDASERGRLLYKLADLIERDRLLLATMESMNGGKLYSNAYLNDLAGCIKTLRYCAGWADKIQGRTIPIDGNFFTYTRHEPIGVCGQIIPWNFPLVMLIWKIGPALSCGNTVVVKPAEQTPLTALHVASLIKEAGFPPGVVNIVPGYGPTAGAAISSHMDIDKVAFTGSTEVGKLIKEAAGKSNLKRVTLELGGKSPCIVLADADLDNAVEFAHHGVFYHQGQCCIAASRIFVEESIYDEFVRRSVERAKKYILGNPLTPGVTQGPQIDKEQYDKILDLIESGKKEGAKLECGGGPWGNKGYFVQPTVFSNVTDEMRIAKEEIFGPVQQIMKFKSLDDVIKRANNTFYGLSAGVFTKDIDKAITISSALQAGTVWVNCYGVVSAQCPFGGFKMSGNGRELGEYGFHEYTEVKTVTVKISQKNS

Potency, inconclusive:
O=C(CN1CCCC1)N1CCCc2ccccc21 20 µM [inhibitor, partial curve]
O=C(NCc1ccc(Cl)cc1)C1CCN(S(=O)(=O)c2ccc(F)cc2)CC1 28.2 µM [inhibitor, single point]
CCOc1cc(NC(=S)NCC2CCCO2)c(OCC)cc1NC(=O)c1ccccc1 (stereo not given) 39.8 µM [inhibitor, single point]
O=C(Nc1cccc(F)c1)c1ccc(S(=O)(=O)N2CCCC2)cc1 39.8 µM [inhibitor, single point]
CCOC(=O)c1ccc(NNC(C)=O)c([N+](=O)[O-])c1 7.94 µM [inhibitor, single point]
CCOC(=O)CC1C(=O)NCCN1S(=O)(=O)c1ccc(C)cc1 (stereo not given) 39.8 µM [inhibitor, single point]
COC(=O)c1c(NC(=O)CC2NCCNC2=O)sc2c1CCCC2 (stereo not given) 28.2 µM [inhibitor, partial curve]
O=C1C2C3c4ccccc4C(c4ccccc43)C2C(=O)N1c1cccc2cccnc12 (stereo not given) 15.8 µM [inhibitor, partial curve, poor fit]
N#CC1=C(N)C(C#N)(C#N)C2(CCC3(CC2)OCCO3)C2CC3(CC=C12)OCCO3 (stereo not given) 39.8 µM [inhibitor, single point]
O=C(c1c[nH]c2ccc(S(=O)(=O)N3CCOCC3)cc2c1=O)N1CCN(c2ccccn2)CC1 39.8 µM [inhibitor, single point]
Cn1c(SCC(=O)N/N=C/c2ccco2)nc2ccccc21 31.6 µM [inhibitor, single point]
Cc1onc(-c2ccc(Cl)cc2Cl)c1-c1csc(COc2ccccc2)n1 35.5 µM [inhibitor, single point]
COc1ccccc1CN1CCCC(C(=O)N(C)Cc2ccccc2)C1 (stereo not given) 20 µM [inhibitor, partial curve]
Nc1nonc1-c1nc2ccccc2[nH]1 25.1 µM [inhibitor, single point]
Cc1onc(-c2ccccc2Cl)c1C(=O)NC(=S)NCC(=O)c1ccccc1 31.6 µM [inhibitor, single point]
COc1ccc(-c2nc3ccc(N4CCN(C)CC4)cc3c(=O)[nH]2)cc1 31.6 µM [inhibitor, partial curve]
Nc1nc2nc(-c3cccs3)cc(C(F)(F)F)n2n1 35.5 µM [inhibitor, partial curve]
Cc1ccccc1N/N=C/c1ccc(C#N)cc1 39.8 µM [inhibitor, single point]
COc1ccc(C2Nc3ccccc3C(=O)N2NS(=O)(=O)c2ccccc2)cc1OC (stereo not given) 37.7 µM [inhibitor, single point]
COc1cc(C(=O)Nc2oc(-c3ccccc3)c(-c3ccccc3)c2C#N)cc(OC)c1OC 39.8 µM [inhibitor, single point]
COc1ccc2c(c1)C1=NN(/C(C)=C/C(C)=O)C(c3ccc(F)cc3)C1CC2 (stereo not given) 39.8 µM [inhibitor, single point]
CC(C)(C)c1cc(NC(=O)c2cccc(S(=O)(=O)N3CCOCC3)c2)no1 12.6 µM [inhibitor, partial curve]
COc1cccc(-c2cc(C(=O)NCC3CCCO3)c3ccccc3n2)c1 (stereo not given) 28.2 µM [inhibitor, single point]
CCOc1ccc2[nH]c(=O)c(CN(CC3COCCO3)C(=O)c3ccc(C)cc3)cc2c1 (stereo not given) 25.1 µM [inhibitor, partial curve]
Cc1cc(C(=O)Nc2sc(C)c(-c3ccc(F)cc3)c2C(N)=O)no1 35.5 µM [inhibitor, partial curve]
O=C(CCN1C(=O)/C(=C\c2ccccc2Cl)SC1=S)N1CCN(c2ccccc2)CC1 25.1 µM [inhibitor, single point]
C/C(=N\NS(=O)(=O)c1ccccc1)c1ccc2c(c1)OCO2 15.8 µM [inhibitor, partial curve, poor fit]
CSc1ccc(C2C(C#N)=C(N)N(c3ccccc3)C3=C2C(=O)CCC3)cc1 (stereo not given) 31.6 µM [inhibitor, single point]
COc1ccc(CNC(=O)CSc2ncnc3nc[nH]c23)cc1 44.7 µM [inhibitor, single point]
Nc1nc2nc(-c3ccccc3)cc(=O)n2[nH]1 22.4 µM [inhibitor, partial curve]
CCCCn1c(=O)[nH]c(=O)c2c1nc(COC(=O)c1c(C)noc1C)n2CCC 39.8 µM [inhibitor, single point]
CC(=O)c1cccc(NC(=O)c2ccc(NS(=O)(=O)c3c(C)noc3C)cc2)c1 0.398 µM [inhibitor, full curve]
Cc1ccc(NC(=O)CN2CCCCCC2)cc1Br 5.01 µM [inhibitor, partial curve, poor fit]
CCC(CO)Nc1ncnc2c1cnn2-c1ccc(OC)cc1 (stereo not given) 31.6 µM [inhibitor, partial curve]
CC(C)(C)NS(=O)(=O)c1ccc2c(c1)oc(=O)c1cc(S(=O)(=O)NC(C)(C)C)ccc12 22.4 µM [inhibitor, single point]
CC(C)C(CC(=O)NCc1ccco1)c1ccco1 (stereo not given) 35.5 µM [inhibitor, single point]
Cc1cc(CNC(=O)COc2ccc([N+](=O)[O-])cc2)c2ccccc2n1 22.4 µM [inhibitor, single point]
O=c1oc2ccccc2c2c1C(c1ccc(Cl)cc1)Nc1ccc3ccccc3c1-2 (stereo not given) 2 µM [inhibitor, partial curve, poor fit]
COc1ccc(C(=O)c2c[nH]c(C(=O)NCc3cccnc3)c2)cc1 39.8 µM [inhibitor, single point]
Cc1ccc(C(=O)Nc2ccc3nccnc3c2)cc1 39.8 µM [inhibitor, single point]
O=C(NN=C1CCC(c2ccccc2)CC1)c1ccccc1-n1cccc1 (stereo not given) 17.8 µM [inhibitor, single point]
CCOC(=O)/C(C(N)=NCCCO)=C(/O)c1ccccc1 0.005 µM [inhibitor, full curve, poor fit]
CSc1ccc(NC(=O)/C=C/C(=O)O)cc1 39.8 µM [inhibitor, single point]
CC(NC(=O)NC12CC3CC(CC(C3)C1)C2)c1ccc2c(c1)OCO2 (stereo not given) 44.7 µM [inhibitor, single point]
CC(C)COc1ccc(-c2nnc(-c3ccco3)o2)cc1 28.2 µM [inhibitor, partial curve]
CC1CCc2c(sc3nc4n(c(=O)c23)CCS4)C1 (stereo not given) 25.1 µM [inhibitor, single point]

Potency, inactive:
O=C(CCN1CCN(C/C=C/c2ccccc2)CC1)Nc1cccc(F)c1
Cc1onc(-c2ccccc2)c1C(=O)OCC(=O)Nc1cc(S(=O)(=O)N2CCOCC2)ccc1Cl
Cc1cc(C)cc(NC(=O)C(=S)NCc2ccccc2)c1
O=C(Cn1nnc(-c2ccccc2)n1)NCc1ccc2c(c1)OCO2
CCCn1c(N)c(C(=O)CSc2nnc(-c3cccnc3)n2-c2ccc(C)cc2C)c(=O)[nH]c1=O
COc1cccc(CNC(=S)NC2CC2)c1
CCOc1ccc(-n2c(=O)c3c4c(sc3n(CC(=O)NCC3CCCO3)c2=O)CCCC4)cc1 (stereo not given)
Cc1cccc(NC(=O)CSc2nc3c(c(=O)[nH]2)CCCC3)c1C
O=C(CSc1nnnn1-c1ccc(Cl)cc1)NC(=O)Nc1ccc2c(c1)OCCO2
COC(=O)C12CCC3(SCCS3)C(C(=O)OC)(CCC13SCCS3)C2
Cc1onc(-c2ccccc2Cl)c1C(N)=O
COc1ccc(NC(=O)Cn2nnc(C(=O)Nc3ccccc3C)c2N)cc1
CCOC(CNC(=O)c1nnc(Cc2cc(OC)c(OC)c(OC)c2)o1)OCC
OC[C@@H](O)C1OC2NC(=S)OC2C1O (stereo not given in full)
Cc1ccccc1OCC(=O)N/N=C/c1ccc(Sc2nc3ccccc3s2)o1
NC(=O)C1CCN(C(=O)CSc2nc3ccccc3[nH]2)CC1
CCN(C(=O)CSc1nnc(-c2ccncc2)n1Cc1ccccc1)C1CCS(=O)(=O)C1 (stereo not given)
CC(C)c1ccc(-c2cc(C(=O)NN3CCN(C)CC3)c3ccccc3n2)cc1
Cc1nc2cc(C(=O)NCc3cccnc3)ccc2n1-c1ccc(F)cc1F
COc1ccccc1C(=O)OCC(=O)NC(=O)NCc1ccccc1

Potency, active:
O=C(CN(CCc1ccccc1)C(=O)Cn1nnc(-c2cccs2)n1)NCc1ccco1 12.6 µM
COc1cc2c(cc1OC)CN(CCC(=O)c1ccc(Br)cc1)CC2 0.199 µM
COC(=O)/C(C#N)=C/c1c(-c2ccccc2)nc2n1CCS2 1.41 µM
O=S(=O)(Cc1ccccc1)NCC1CCCN(Cc2cccc3nonc23)C1 (stereo not given) 10 µM
